Measured values reported in PubChem BioAssay AID624296 (National Center for Advancing Translational Sciences (NCATS), 2012).
Among all 350,000 compounds or so, about 9,900 (2.8%) were called active. This list was built around the results that the source calls inconclusive (neither active nor inactive); the mix of calls is not that of the screen. Calls come from the whole dose curve; as a rule, active = well fitted activation curve with a large enough effect; inconclusive = small, poorly fitted or top-dose-only effect; inactive = no such curve, though single readings can be large or run the other way. Potencies of inconclusive entries are left out as doubtful fits.

Assay: A quantitative high throughput screen for small molecules that induce DNA re-replication in MCF 10a normal breast cells. Note: nearly all actives have a fitted effect of over 50% in size.
Settings: MCF 10A DNA re-replication, Hoechst nuclear intensity, 48 h; series mostly up to 46.1 µM
Potency is the fitted concentration of half-maximal effect; tags give direction and shape of the fitted curve.

Q: For CCOC(=O)C1CCCN(Cc2nc(C3CC3)no2)C1 (centres undefined), which Potency is on record?
A: The Potency was “inactive”.

Q: For COc1ccc(OCC(=O)OC2CCN(C)CC2)cc1, which Potency is on record?
A: The Potency was “inactive”.

Q: For O=C(CCl)Nc1cccc(-c2cnc3ccccc3n2)c1, which Potency is on record?
A: The Potency was inconclusive [activator, single point].

Q: With CC(C)COc1ccc(CNC(=S)NCc2ccccc2)cc1 as the compound, how does the Potency read?
A: Its Potency is inconclusive [activator, single point].

Q: For O=C(NC1CCCCCC1)c1cc2n(n1)C(C(F)(F)F)CC(c1ccco1)N2 (centres undefined), which Potency is on record?
A: Its Potency is inconclusive [activator, partial curve].

Q: For CCn1c(COc2cccc(C)c2)nnc1SCC(=O)CC(=O)Nc1ccccc1OC, which Potency is on record?
A: Its Potency is “inactive”.

Q: For CC(=O)NC(=S)NNC(=O)c1ccc(Br)cc1, which Potency is on record?
A: The Potency was inconclusive [activator, single point].

Q: For Cc1cccc(C)c1NS(=O)(=O)c1ccc(NC(=O)c2ccc(Cl)c([N+](=O)[O-])c2)cc1, which Potency is on record?
A: The Potency was inconclusive [activator, full curve].

Q: Which Potency does the source give for CCN1CCN(c2cc(N3CCc4ccccc4C3)c(F)cc2[N+](=O)[O-])CC1 here?
A: The Potency was inconclusive [activator, single point].

Q: With O=C(CSCc1c(F)cccc1Cl)NCc1ccco1 as the compound, how does the Potency read?
A: The Potency was inconclusive [activator, partial curve, poor fit].

Q: Which Potency does the source give for CC(C)c1cc(C(=O)N/N=C/c2cccnc2)n[nH]1 here?
A: Its Potency is inconclusive [activator, single point].

Q: For COc1ccccc1C(=O)NNC(=O)c1sccc1-n1cccc1, which Potency is on record?
A: Its Potency is inconclusive [activator, partial curve, poor fit].

Q: With Cc1ccc(C)c(CSc2ccc3nnc(-c4ccccn4)n3n2)c1 as the compound, how does the Potency read?
A: The Potency was “inactive”.

Q: Which Potency does the source give for CCOC(=O)N1CCN(S(=O)(=O)c2cc(C)c(C)cc2C)CC1 here?
A: Its Potency is inconclusive [activator, single point].

Q: Which Potency does the source give for Cc1ccc(-c2cc(-c3ccccc3)c(C#N)c(Br)n2)cc1 here?
A: Its Potency is inconclusive [activator, single point].

Q: Which Potency does the source give for CCOc1cccc2sc(N(CCN(C)C)C(=O)/C=C/c3cccs3)nc12 here?
A: Its Potency is active: 8.2 µM.

Q: With CCOC(=O)c1c(C)[nH]c(C)c1C(=O)CSc1nc2ccccc2c(=O)n1-c1ccc(F)cc1 as the compound, how does the Potency read?
A: The Potency was inconclusive [activator, partial curve, poor fit].

Q: With Cc1ccccc1C(=O)N(C)Cc1ccccc1 as the compound, how does the Potency read?
A: Its Potency is inconclusive [activator, single point].

Q: For Cc1ccc(CS(=O)Cc2ccc(C(=O)NC3CCCCCC3)o2)cc1 (centres undefined), which Potency is on record?
A: Its Potency is “inactive”.

Q: Which Potency does the source give for CN(CC(=O)Nc1ccccc1Br)C(=O)c1ccccc1OCc1ccc(F)cc1 here?
A: Its Potency is “inactive”.

Q: Which Potency does the source give for CCCN1CCC(NC(=O)CC2C(=O)NCCN2Cc2ccccc2C)CC1 (centres undefined) here?
A: The Potency was “inactive”.

Q: Which Potency does the source give for CC(=O)c1cc2c(cc1N/C(=N/S(=O)(=O)c1ccc(C)cc1)c1ccccc1)OCO2 here?
A: The Potency was inconclusive [activator, full curve, poor fit].

Q: For O=S(=O)(NCc1ccccn1)c1ccc(Cl)s1, which Potency is on record?
A: The Potency was “inactive”.

Q: For COc1ccc(S(=O)(=O)NC2(C(F)(F)F)N=C(c3ccccc3)NC2=O)cc1 (centres undefined), which Potency is on record?
A: The Potency was inconclusive [activator, partial curve, poor fit].

Q: With Cc1ccc(C)c(-c2[nH]ncc2CN2CCCC(CO)(Cc3ccccc3C)C2)c1 (centres undefined) as the compound, how does the Potency read?
A: The Potency was inconclusive [activator, partial curve, poor fit].

Q: For Cc1c(NC2(C#N)CCCC2)c(=O)n(-c2ccccc2)n1C, which Potency is on record?
A: The Potency was inconclusive [activator, partial curve, poor fit].

Q: With COc1ccccc1NS(=O)(=O)c1cc(NC(=O)CNC(=O)c2cc(C)cc(C)c2)ccc1C as the compound, how does the Potency read?
A: Its Potency is “inactive”.

Q: For COc1ccc(-c2cc(C(=O)Nc3nc4ccccc4s3)c3ccccc3n2)cc1OC, which Potency is on record?
A: Its Potency is active: 2.91 µM.

Q: For O=C(NCc1ccco1)c1cnc2ccccn2c1=O, which Potency is on record?
A: Its Potency is “inactive”.

Q: Which Potency does the source give for Cc1ccc(NC(=O)c2ccco2)c(NC(=O)c2ccc(Cl)cc2)c1 here?
A: The Potency was inconclusive [activator, partial curve, poor fit].

Q: For Cc1ccccc1CSc1nc2c(c(=O)[nH]1)CCC2, which Potency is on record?
A: Its Potency is “inactive”.

Q: With CCc1ccccc1NC(=O)c1ccc([N+](=O)[O-])s1 as the compound, how does the Potency read?
A: The Potency was inconclusive [activator, single point].

Q: With COCCNC(=S)Nc1ccc2nc(N3CCN(C)CC3)cc(C)c2c1 as the compound, how does the Potency read?
A: The Potency was inconclusive [activator, partial curve].

Q: With Cc1ccc(CN2CCC(n3nccc3NC(=O)CCOc3ccccc3)CC2)cc1C as the compound, how does the Potency read?
A: The Potency was inconclusive [activator, partial curve, poor fit].

Q: For O=C(NNC(=O)C(c1ccccc1)c1ccccc1)c1ccccn1, which Potency is on record?
A: Its Potency is inconclusive [activator, full curve, poor fit].

Q: Which Potency does the source give for CC1(C(=O)Nc2nnc(SCc3ccccc3)s2)Cc2ccccc2C(=O)O1 (centres undefined) here?
A: Its Potency is “inactive”.

Q: With Cc1ccc(C(C)C)c(OCC(=O)NC(=S)Nc2ccccc2N2CCOCC2)c1 as the compound, how does the Potency read?
A: The Potency was inconclusive [activator, partial curve, poor fit].

Q: With CNC(=S)N/N=C/c1ccc(-c2cc([N+](=O)[O-])ccc2Cl)o1 as the compound, how does the Potency read?
A: The Potency was “inactive”.

Q: Which Potency does the source give for Cc1cc(C)c(OCC(=O)NCCCn2nc(C)cc2C)c(C)c1 here?
A: Its Potency is “inactive”.

Q: For O=[N+]([O-])c1ccc(Cl)c2c1C1C=CCC1C(c1ccccn1)N2 (centres undefined), which Potency is on record?
A: The Potency was inconclusive [activator, single point].

Q: With COc1ccccc1/C=N/n1c(C)nnc1-n1nc(C)cc1C as the compound, how does the Potency read?
A: Its Potency is inconclusive [activator, single point].

Q: For Nc1cc(C(=O)c2cccs2)ccc1Cl, which Potency is on record?
A: Its Potency is inconclusive [activator, single point].

Q: For O=c1[nH]c(S)nc2sc3c(c12)CCCC3, which Potency is on record?
A: The Potency was inconclusive [activator, single point].

Q: With CCOC(=O)c1cc(C#N)c(C)nc1N(CC)CC as the compound, how does the Potency read?
A: The Potency was inconclusive [activator, full curve, poor fit].

Q: With O=C(NCCOc1cccc(Oc2ccccc2)c1)c1cc(-n2cnnc2)ccc1Cl as the compound, how does the Potency read?
A: Its Potency is “inactive”.

Q: With CCc1ccc(-c2nc(CSCC(=O)N3CCN(c4ncccn4)CC3)c(C)o2)cc1 as the compound, how does the Potency read?
A: Its Potency is “inactive”.

Q: Which Potency does the source give for CC1Sc2ccc(S(=O)(=O)CCC(=O)Nc3ccc(C(C)C)cc3)cc2NC1=O (centres undefined) here?
A: Its Potency is inconclusive [activator, partial curve, poor fit].

Q: Which Potency does the source give for Cc1cc(N2CCN(c3ccccc3)CC2)n2cc(-c3ccccc3)nc2n1 here?
A: Its Potency is inconclusive [activator, single point].

Q: With COCCn1c(Cc2ccccc2)nnc1SC(C)C(=O)NC1CC1 (centres undefined) as the compound, how does the Potency read?
A: The Potency was inconclusive [activator, single point].

Q: For CCCCOC(=O)c1ccc(NC(c2ccc(C)cc2)P(=O)(OC)OC)cc1 (centres undefined), which Potency is on record?
A: The Potency was inconclusive [activator, single point].

Q: For O=C(CN(Cc1ccco1)C(=O)c1ccc(F)cc1)Nc1ccccc1Br, which Potency is on record?
A: The Potency was “inactive”.

Q: With CCOC(=O)N1CCN(S(=O)(=O)c2ccc(C(=O)NNc3nc4c(C)cc(C)cc4s3)cc2)CC1 as the compound, how does the Potency read?
A: Its Potency is inconclusive [activator, partial curve, poor fit].

Q: For CC(C(=O)NC1CCCC1)N(C(=O)c1snc(C(N)=O)c1N)c1ccc2c(c1)OCCO2 (centres undefined), which Potency is on record?
A: The Potency was “inactive”.

Q: With COc1cccc(CNC(=O)C2CCCN(c3nn4c(=O)cc(C)nc4s3)C2)c1 (centres undefined) as the compound, how does the Potency read?
A: The Potency was “inactive”.

Q: With COc1ccc(-n2nnnc2S(=O)(=O)Cc2ccc(C(=O)O)cc2)cc1 as the compound, how does the Potency read?
A: The Potency was active: 16.4 µM.

Q: For O=C(N/N=C/c1ccc2c(c1)OCO2)c1ccc(COCC(F)(F)C(F)F)cc1, which Potency is on record?
A: Its Potency is inconclusive [activator, partial curve].

Q: Which Potency does the source give for COC(=O)C1=C(N)Oc2cc(C)n(CC3CCCO3)c(=O)c2C1c1ccc(Cl)c(Cl)c1 (centres undefined) here?
A: Its Potency is inconclusive [activator, full curve, poor fit].

Q: With O=C(c1ccccc1NS(=O)(=O)c1ccc([N+](=O)[O-])cc1[N+](=O)[O-])N1O[C@@H]2C=C[C@H]1C2 as the compound, how does the Potency read?
A: The Potency was inconclusive [activator, single point].

Q: With S=c1[nH]nc(-c2ccc(Cl)cc2)n1/N=C/C=C/c1ccco1 as the compound, how does the Potency read?
A: Its Potency is “inactive”.

Q: For CCCc1cc(C(=O)Cc2ccc(F)cc2)c(O)cc1O, which Potency is on record?
A: Its Potency is inconclusive [activator, single point].

Q: For COc1ccc(C(=O)N2CCN(c3cccc(Cl)c3)CC2)cc1S(=O)(=O)NC1CC1, which Potency is on record?
A: Its Potency is active: 23.1 µM.

Q: With COC(=O)c1c(NC(=S)NNS(=O)(=O)c2ccc(OC)cc2OC)sc2c1CCCCCC2 as the compound, how does the Potency read?
A: Its Potency is inconclusive [activator, full curve, poor fit].

Q: With CCOC(=O)C(CC)(CC)C(=O)/C=C/c1ccc(Br)cc1 as the compound, how does the Potency read?
A: The Potency was inconclusive [activator, single point].

Q: With CCCN1CCN(C(=O)CCCn2c(C)c3cnn(-c4ccccc4)c(=O)c3c2C)CC1 as the compound, how does the Potency read?
A: The Potency was “inactive”.

Q: For Cn1nc(C(C)(C)C)c([N+](=O)[O-])c1C(=O)NC1CCCCC1, which Potency is on record?
A: Its Potency is inconclusive [activator, single point].

Q: With O=C(N/N=C/C(Br)=C/c1ccccc1)NC1CCCCC1 as the compound, how does the Potency read?
A: Its Potency is inconclusive [activator, single point].

Q: Which Potency does the source give for COc1ccc2c(c1)O/C(=C\c1ccco1)C2=O here?
A: Its Potency is inconclusive [activator, single point].

Q: For Cc1sc2ncnc(N3CCC(C(=O)NNC(=O)COc4ccccc4F)CC3)c2c1C, which Potency is on record?
A: Its Potency is inconclusive [activator, single point].

Q: With COCCCNC(=O)C(C#N)c1nc2ccccc2nc1N1CCN(Cc2ccccc2)CC1 (centres undefined) as the compound, how does the Potency read?
A: The Potency was inconclusive [activator, partial curve, poor fit].
